Measurements taken from PubChem BioAssay AID504333 (National Center for Advancing Translational Sciences (NCATS), 2011).
In all, about 360,000 compounds went through this assay and about 16,000 (4.4%) were called active. Inconclusive means that the source gave no clear call. Such entries were picked first, then a sample of the others. Calls follow the shape of the dose curve; as a rule, active = well fitted inhibition curve with a large enough effect; inconclusive = small, poorly fitted or top-dose-only effect; inactive = no such curve, though single readings can be large or run the other way. A potency beside an inconclusive call is a rough fit, not a confirmed value.

Biological target: Bromodomain adjacent to zinc finger domain protein 2B (Homo sapiens) (UniProt Q9UIF8)
Chain of UniProt Q9UIF8 (Q9UIF8 whole entry, looked up, the tested form may be a part): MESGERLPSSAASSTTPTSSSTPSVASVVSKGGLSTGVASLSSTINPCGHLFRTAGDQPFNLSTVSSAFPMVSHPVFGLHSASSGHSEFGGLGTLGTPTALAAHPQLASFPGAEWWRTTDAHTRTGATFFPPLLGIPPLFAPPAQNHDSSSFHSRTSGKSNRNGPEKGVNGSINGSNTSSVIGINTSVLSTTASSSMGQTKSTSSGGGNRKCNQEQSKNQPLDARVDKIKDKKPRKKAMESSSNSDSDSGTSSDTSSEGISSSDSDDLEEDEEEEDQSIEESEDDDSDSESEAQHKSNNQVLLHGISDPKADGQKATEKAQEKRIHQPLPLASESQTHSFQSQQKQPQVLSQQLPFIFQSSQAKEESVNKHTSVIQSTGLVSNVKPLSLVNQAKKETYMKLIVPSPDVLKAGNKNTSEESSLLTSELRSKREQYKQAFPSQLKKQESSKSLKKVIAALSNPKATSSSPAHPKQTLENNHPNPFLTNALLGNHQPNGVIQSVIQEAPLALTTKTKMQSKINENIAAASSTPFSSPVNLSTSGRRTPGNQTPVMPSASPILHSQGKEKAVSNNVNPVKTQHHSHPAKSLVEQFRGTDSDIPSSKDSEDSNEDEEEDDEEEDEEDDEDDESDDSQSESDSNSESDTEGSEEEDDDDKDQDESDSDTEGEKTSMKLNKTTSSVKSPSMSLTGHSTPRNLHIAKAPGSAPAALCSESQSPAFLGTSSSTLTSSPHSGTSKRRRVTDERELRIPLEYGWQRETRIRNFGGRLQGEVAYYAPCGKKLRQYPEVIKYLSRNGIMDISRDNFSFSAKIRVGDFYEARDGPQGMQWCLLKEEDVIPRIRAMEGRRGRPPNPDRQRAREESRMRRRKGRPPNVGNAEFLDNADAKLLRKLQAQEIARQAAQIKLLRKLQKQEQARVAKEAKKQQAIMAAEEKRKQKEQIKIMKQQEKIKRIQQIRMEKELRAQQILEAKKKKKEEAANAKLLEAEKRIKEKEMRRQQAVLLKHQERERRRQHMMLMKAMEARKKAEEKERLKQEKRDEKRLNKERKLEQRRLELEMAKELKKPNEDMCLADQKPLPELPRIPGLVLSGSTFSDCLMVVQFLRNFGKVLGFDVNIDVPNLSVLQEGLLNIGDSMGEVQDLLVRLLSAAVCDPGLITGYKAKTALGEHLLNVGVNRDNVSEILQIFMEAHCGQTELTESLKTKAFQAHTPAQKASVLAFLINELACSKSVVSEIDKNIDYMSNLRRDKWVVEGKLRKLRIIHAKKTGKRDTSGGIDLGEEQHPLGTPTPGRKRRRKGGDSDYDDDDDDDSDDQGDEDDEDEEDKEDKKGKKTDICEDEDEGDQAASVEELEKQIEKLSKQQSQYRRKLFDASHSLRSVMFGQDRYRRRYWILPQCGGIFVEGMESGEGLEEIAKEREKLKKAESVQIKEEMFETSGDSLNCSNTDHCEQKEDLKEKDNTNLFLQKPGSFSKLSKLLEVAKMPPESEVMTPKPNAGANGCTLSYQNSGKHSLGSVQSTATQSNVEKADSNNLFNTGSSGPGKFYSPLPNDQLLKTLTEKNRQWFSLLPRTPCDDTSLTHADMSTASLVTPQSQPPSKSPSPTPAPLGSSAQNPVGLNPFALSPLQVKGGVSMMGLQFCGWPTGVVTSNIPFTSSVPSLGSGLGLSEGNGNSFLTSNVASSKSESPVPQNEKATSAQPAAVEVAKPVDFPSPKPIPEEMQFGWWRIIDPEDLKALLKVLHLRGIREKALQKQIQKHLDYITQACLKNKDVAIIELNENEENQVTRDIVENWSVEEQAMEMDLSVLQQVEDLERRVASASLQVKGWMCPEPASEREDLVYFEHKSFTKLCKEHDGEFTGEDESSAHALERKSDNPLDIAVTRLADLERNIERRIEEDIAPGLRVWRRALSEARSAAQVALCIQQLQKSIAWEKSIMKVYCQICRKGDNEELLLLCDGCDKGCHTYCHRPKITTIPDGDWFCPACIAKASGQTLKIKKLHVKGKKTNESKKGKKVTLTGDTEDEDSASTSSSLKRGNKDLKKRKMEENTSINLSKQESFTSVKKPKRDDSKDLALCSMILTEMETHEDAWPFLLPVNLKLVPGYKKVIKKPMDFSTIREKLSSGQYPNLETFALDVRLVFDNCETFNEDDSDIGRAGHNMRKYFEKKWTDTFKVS
Test: qHTS Assay for Inhibitors of BAZ2B; also: nearly all actives have a fitted effect of over 60% in size
Settings: AlphaScreen BAZ2B-H3K14Ac peptide displacement; activity change, negative = inhibition: at 114 µM (top of the series)
How it was run: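 AlphaScreen luminescence quantifies BAZ2B engagement of H3K14Ac peptide; the protein and biotinylated peptide are both at 50 nM final, buffer PBS pH 7.4 with 0.01% Tween-20, all steps at room temperature.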
% is scaled to controls: 0 for no effect and ±100 for the full control effect; potency is read from the fitted curve at half-maximal effect; tags tell the direction and shape of the fitted curve.

Compound	Potency	activity change, negative = inhibition
COc1cccc(Cn2cc(/C=N/NC(=O)c3cc(O)cc(O)c3)c3ccccc32)c1	inconclusive: 14.1 µM [inhibitor, full curve]	
O=C(C1=C(O)C(=O)N(CCN2CCOCC2)C1c1ccc([N+](=O)[O-])cc1)c1cc2ccccc2o1 (centres undefined)	inactive	
O=C1CC[C@@H](CN(Cc2ccccc2)Cc2cn[nH]c2-c2cc3ccccc3o2)N1	inconclusive: 39.8 µM [inhibitor, partial curve]	
Cc1cccc(OC(=O)CSc2nnc(CNC(=O)c3ccccc3)o2)c1C	inactive	
Cc1cccc(-n2c(=S)[nH]c3sc4c(c3c2=O)CCc2ccccc2-4)c1	inconclusive: 20 µM [inhibitor, full curve]	
O=C(Nc1ccc(F)cc1)c1oc2ccccc2c1NC(=O)C12CC3CC(CC(C3)C1)C2	inactive	
O=C(Nc1cc(Cl)cc(Cl)c1)c1ccc(F)c(S(=O)(=O)N2CCc3ccccc32)c1	inactive	
CC(C)c1ccc(CN2CCSCC2)cc1	inconclusive: 79.4 µM [inhibitor, single point]	
N#Cc1c(-c2ccccc2)c(-c2ccccc2)nn(CC(=O)NNC(=O)Nc2ccc(Cl)c(Cl)c2)c1=O	inconclusive: 50.1 µM [inhibitor, partial curve]	
CN(/N=C/c1cc([N+](=O)[O-])ccc1O)c1ccccc1	inactive	
CCN(CC)C(=O)c1ccc(-c2nnc(Nc3ccc(C(=O)NC)cc3)c3ccccc23)cc1	inconclusive: 79.4 µM [inhibitor, partial curve]	
COc1ccc(OC)c(S(=O)(=O)NC2CC(=O)N(c3ccc(C)c(C)c3)C2)c1 (centres undefined)	inconclusive: 89.1 µM [inhibitor, single point]	
COc1ccc(NC(=O)CSc2nc(NS(=O)(=O)c3ccc(C)cc3)cc(=O)[nH]2)cc1	active: 50.1 µM	
CCCOc1ccc(/C=c2\sc3ncnn3c2=O)cc1	inactive	
CC(C)C(c1nnnn1Cc1ccccc1)N1CCN(Cc2ccco2)CC1 (centres undefined)	inconclusive: 89.1 µM [inhibitor, single point]	
O=C1S/C(=C\c2ccc(N3CCOCC3)o2)C(=O)N1c1ccccc1	inconclusive: 50.1 µM [inhibitor, partial curve]	
O=[N+]([O-])c1cc(CSC2=NCCN2)ccc1O	inconclusive: 79.4 µM [inhibitor, partial curve]	
COc1ccc(NC(=O)CSc2nnc(-c3ccccc3Cl)n2Cc2ccco2)c(OC)c1	inconclusive: 56.2 µM [inhibitor, partial curve]	
O=C(/C=C/c1ccccc1)NNc1ccc(Cl)cc1	inconclusive: 70.8 µM [inhibitor, single point]	
CCN(C(=O)C1CCC(CNS(=O)(=O)c2cccc3nsnc23)CC1)c1ccc(C)c(C)c1 (centres undefined)	inconclusive: 35.5 µM [inhibitor, partial curve]	
O=C(O)CC(NC(=S)NCc1ccccc1)C(=O)O (centres undefined)	inactive	
Cc1ccccc1C(=O)Nc1ccc(OCc2cc(=O)n3cccc(C)c3n2)cc1	inactive	

Compound	Potency	activity change, negative = inhibition
Cc1ccc(NC(=O)CSCC(=O)Nc2ncc3c(n2)CC(c2ccco2)CC3=O)cc1 (centres undefined)	inactive	
CC1=C(c2ccc(C)c(C)c2)S(=O)(=O)N=C1N1CCC(C(=O)N2CCC(C(N)=O)CC2)CC1	inactive	
O=C1COc2cc(S(=O)(=O)NCc3ccco3)c(Cl)cc2N1	active: 50.1 µM	
O=c1c2oc3ccccc3c2n(Cc2ccc(Cl)cc2)c(=O)n1Cc1ccco1	inconclusive: 89.1 µM [inhibitor, single point]	
Cc1ccc(N=Nc2ccc(C)cc2NC(=O)Nc2ccccc2F)cc1	inconclusive: 79.4 µM [inhibitor, single point]	
Nc1nc(Nc2ccccc2)nc(N2CCCC2)c1[N+](=O)[O-]	inconclusive: 70.8 µM [inhibitor, partial curve]	
Cc1cc(/C=N/NC(=O)c2ccc(CN3CCOCC3)cc2)c(C)n1-c1ccccc1	inconclusive: 89.1 µM [inhibitor, single point]	
CCOC(=O)/C(C#N)=C1/C(=O)N(Cc2ccccc2)c2ccccc21	active: 25.1 µM	
O=C(NCCc1ccccc1)c1nc2nc(-c3cccs3)cc(C(F)(F)F)n2n1	active: 50.1 µM	
CC(CCc1ccccc1)NCc1cccc2ccccc12 (centres undefined)		inactive: 11.2% [at 0.457 µM]
C/C(=N\NC(=S)NC(C)C)c1ccc2c(c1)OCCO2	inconclusive: 50.1 µM [inhibitor, partial curve]	
COc1ccc(CCN2CCC(Nc3nc4ccccc4n3Cc3ccc(F)cc3)CC2)cc1	inconclusive: 25.1 µM [inhibitor, partial curve]	
C[C@@H]([C@@H](O)c1ccccc1)N(C)C(=O)C(N)Cc1ccccc1 (some centres undefined)	inactive	
Cc1ccc(CCC(=O)Nc2nccs2)o1	inconclusive: 56.2 µM [inhibitor, partial curve]	
CC(=O)Nc1cc(OC(C)=O)c2nonc2c1OC(C)=O	inconclusive: 89.1 µM [inhibitor, single point]	
O=C(CCC(=O)N1CCOc2ccc(Cl)cc21)NCCCN1CCN(c2ccccc2F)CC1	inconclusive: 70.8 µM [inhibitor, single point]	
COc1ccc(/C=N/NC(=O)C(=O)N2CCCCCC2)cc1	inactive	
O=C(N/N=C/c1ccco1)Nc1ccccc1	inactive	
NS(=O)(=O)c1ccc(N/N=C/c2cn(-c3ccccc3)nc2-c2cccs2)c([N+](=O)[O-])c1	inconclusive: 50.1 µM [inhibitor, partial curve, poor fit]	
COC(=O)C1=C(C)N(Cc2ccccc2)C(=O)N[C@H]1c1ccccc1	inconclusive: 89.1 µM [inhibitor, partial curve]	
O=C(Nc1cc(-c2nc3ccccc3o2)ccc1Cl)c1ccc(N2CCCCC2)c([N+](=O)[O-])c1	inconclusive: 44.7 µM [inhibitor, partial curve]	
COc1ccc(-c2csc(N(CCCN3CCOCC3)C(=O)CCl)n2)cc1	inconclusive: 89.1 µM [inhibitor, single point]	
